Experimental data: ChEMBL document CHEMBL1201862, “PubChem BioAssay data set” (2004)
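Cultured in 96-well plates, cells were exposed to test compound for 48 hours across five concentrations. At the GI50, growth is halved.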 Calls of active or inactive are those of the source. Cut-off read from the data, not from the text of the source: active = GI50 up to about 1.1 µM and inactive = higher. Square brackets hold non-standard residues; d marks the D form. Peptide text beside a SMILES is read from it. Phe(4-NO2) = N[CH](Cc1ccc([N+](=O)[O-])cc1)C(=O)O

The compounds below were run on NCI-H322M (assay: NCI-60 cell line screen, 48 h).
In the case of `O=C1c2ccccc2-c2nnc(-c3ccc(Cl)cc3)cc21`, the GI50 is reported as inactive: > 10 µM.
With `O=[N+]([O-])c1ccc(S(=O)(=O)Cc2ccccc2)c2nonc12` the GI50 was inactive: 31.6 µM.
In the case of `CC(CCC(=O)O)(c1cc(Br)c(O)c(Br)c1)c1cc(Br)c(O)c(Br)c1`, the GI50 is reported as inactive: 36.6 µM.
`[N-]=[N+]=CC(=O)CCC(N)C(=O)O` (centres undefined) was tested, and the GI50 was inactive: 1.6 µM.
With `CCNC(=S)N/N=C/c1ccccn1` the GI50 was inactive: 12.2 µM.
`Cc1ccc(S(=O)(=O)N/N=C/c2c(O)ccc3ccccc23)cc1` was tested, and the GI50 was inactive: 27.4 µM.
For `CC(C(=O)COCc1ccccc1)P1(=O)OC(C)(C)CN1C(C)(C)C` (centres undefined), the GI50 was inactive: > 100 µM.
`CC1=C2C=CC(=O)C[C@@]2(C)CCC1` was tested, and the GI50 was inactive: > 100 µM.
In the case of `O=C1CCCCCCCCCCC1CN1CCCCC1` (centres undefined), the GI50 is reported as inactive: > 100 µM.
For `Cc1ccc2nc(C(C)C)c(=O)[nH]c2c1`, the GI50 was inactive: > 100 µM.
With `OCC(O)C(O)C(O)C(/C=N\Nc1ncnc2ccc(Br)cc12)=N/Nc1ncnc2ccc(Br)cc12` (centres undefined) the GI50 was inactive: 4.23 µM.
With `Cc1cn(C2CCN(CC3COC(C)(C)O3)O2)c(=O)[nH]c1=O` (centres undefined) the GI50 was inactive: > 100 µM.
In the case of `CC1=C/C(=C2/N=C(N(C)C)SS2)C(C)=N1.[O-][Cl+3]([O-])([O-])O`, the GI50 is reported as inactive: > 100 µM.
For `N#Cc1c(-c2ccc(Cl)cc2)cc(-c2ccc(Nc3ccnc4cc(Cl)ccc34)cc2)nc1N`, the GI50 was inactive: > 100 µM.
`COc1cc(C2c3cc(OC)c(OC)c(O)c3C(=O)C3CCC(=O)N32)cc(OC)c1OC` (centres undefined) was tested, and the GI50 was inactive: > 100 µM.
With `Cc1ccc([S@+]([O-])c2occc2C=O)cc1` the GI50 was inactive: 15.8 µM.
`O=C(CCc1nnc2s/c(=C\c3ccccc3Cl)c(=O)n12)Nc1cc(Cl)ccc1Cl` was tested, and the GI50 was inactive: > 100 µM.
With `O=C(NC(Cc1ccccc1)C(=O)CCl)OCc1ccccc1` (centres undefined) the GI50 was inactive: 17.6 µM.
In the case of `Cc1c(C)c2ccc(OC(C)C(=O)O)cc2oc1=O` (centres undefined), the GI50 is reported as inactive: > 100 µM.
For `O=c1c(-c2ccccc2)c2oc(c1-c1ccccc1)CS(=O)(=O)CCC2`, the GI50 was inactive: > 100 µM.
In the case of `CCOc1cc(/C=N\O)cc(/C=N/O)c1O`, the GI50 is reported as inactive: 44.6 µM.
For `CC(=O)OCOC(=O)CN(CC(=O)OCOC(C)=O)Cc1cc2c(cc1OC(C)=O)Oc1cc(OC(C)=O)c(CN(CC(=O)OCOC(C)=O)CC(=O)OCOC(C)=O)cc1C21OC(=O)c2ccccc21`, the GI50 was inactive: 1.8 µM.
`COC(=O)C1CC(C=[N+](C)C)=C(SC)N1` (centres undefined) was tested, and the GI50 was inactive: 30.9 µM.
With `c1ccc(C2=NN(c3nc4ccccc4s3)C3(CCCCC3)N2)nc1` the GI50 was inactive: 57.1 µM.
With `CC(=O)OC1CC[C@@]2(C)C(=CC[C@@H]3[C@@H]2CC[C@]2(C)C(OC(C)=O)[C@H](n4ccnc4)C[C@@H]32)C1` (some centres undefined) the GI50 was inactive: > 100 µM.
With `COc1c2c(nc3ccccc13)-c1cc3c(c(=O)n1C2)COC(=O)C3(O)CC(=O)N1CCOCC1` (centres undefined) the GI50 was inactive: 19.3 µM.
For `COc1ccc(NC2CC(C)N(C(=O)c3ccccc3)O2)cc1` (centres undefined), the GI50 was inactive: > 10 µM.
With `COC(=O)c1c(O)ccc2c1c1c(n2Cc2cccc(C)c2)C(=O)c2ccccc2C1=O` the GI50 was inactive: 7.89 µM.
`CC(=O)N(C(C)=O)n1nc2c(n1)C(=O)c1ccccc1C2=O` was tested, and the GI50 was inactive: > 100 µM.
`CC(C)(C)OC(=O)NC(Cc1ccc(OCc2ccccc2)cn1)C(=O)NCc1ccccc1` (centres undefined) was tested, and the GI50 was inactive: 48.3 µM.
With `Cc1ccc(S(=O)(=O)NC(=O)NC(Cc2ccccc2)C(=O)O)cc1` (centres undefined) the GI50 was inactive: > 100 µM.
In the case of `N#Cc1c2nc3ccccc3nc2n2ccc3ccccc3c12`, the GI50 is reported as inactive: > 100 µM.
With `O=C1CSC(c2ccccc2)N1c1ccc(-c2ccc(-n3c(-c4ccccc4)nc4ccccc4c3=O)cc2)cc1` (centres undefined) the GI50 was inactive: > 100 µM.
`O=C1C[C@H](Sc2ccccc2)C2(OCCO2)[C@H]2ON3CCC[C@@H]3[C@@H]12` was tested, and the GI50 was inactive: 6.7 µM.
For `Cc1ncc2c(n1)CCC1=C2OS(=O)(=O)CC1N(C)C` (centres undefined), the GI50 was inactive: > 100 µM.
In the case of `O=c1[nH]c2c(c3ccccc13)CCc1ccccc1-2`, the GI50 is reported as inactive: > 100 µM.
`CC1C=C(NCC2(CO)CCC2)N=C(N)N1` (centres undefined) was tested, and the GI50 was inactive: > 100 µM.
With `O=c1[nH]c(=O)n(C2CC(O)C(CO)O2)cc1C#Cc1ccc(F)cc1` (centres undefined) the GI50 was inactive: > 100 µM.
For `O=C(Oc1ccc(Cl)cc1[N+](=O)[O-])c1ccccc1`, the GI50 was inactive: > 100 µM.
`CCOC(=O)c1cc(NC(=O)c2ccccc2)c(=O)n2c(cc3c(Cl)cccc32)c1O` was tested, and the GI50 was inactive: > 100 µM.
For `COc1cc(/C=C(\C)[N+](=O)[O-])cc(OC)c1`, the GI50 was inactive: 17.7 µM.
`COC(=O)c1c(-c2ccccc2)c2sc3ccccc3n2c1N` was tested, and the GI50 was inactive: > 100 µM.
For `Nc1nc2ccc(Sc3ccc4nc(N)[nH]c(=O)c4c3)cc2c(=O)[nH]1`, the GI50 was inactive: > 100 µM.
For `O=C(N1CCOCC1)C1(c2ccccc2)CCNCC1`, the GI50 was inactive: > 100 µM.
For `c1csc(-c2ccsc2-c2ccsc2)c1`, the GI50 was inactive: > 100 µM.
In the case of `O=C1OCc2c1cc1ccc(O)c(OC3OC(CO)C(O)C(O)C3O)c1c2-c1ccc2c(c1)OCO2` (centres undefined), the GI50 is reported as inactive: > 100 µM.
With `CC1(C)CC(=O)c2c(nc3ccc4ccccc4c3c2-c2ccc(NC(=O)CCC(=O)Nc3ccc(-c4c5c(nc6ccc7ccccc7c46)CC(C)(C)CC5=O)cc3)cc2)C1` the GI50 was inactive: > 100 µM.
`Cc1ccc(C2C(C(=O)C(C)(C)C)N2S(=O)(=O)c2ccc(C)cc2)cc1` (centres undefined) was tested, and the GI50 was inactive: 51.3 µM.
For `O=C(Nc1ccc2[nH]c3c(-c4ccccc4)nccc3c2c1)c1ccccc1[N+](=O)[O-]`, the GI50 was inactive: 7.46 µM.
With `O=C(CCCC1Cc2ccccc2C1=O)c1ccccc1` (centres undefined) the GI50 was inactive: > 100 µM.
For `O=C(O)CCC(=O)Oc1ccc(O)c2c1CCCC2=O`, the GI50 was inactive: > 100 µM.
For `O=C(O)c1ccc([Se][Se]c2ccc(C(=O)O)cc2)cc1`, the GI50 was inactive: 5.36 µM.
With `Cn1ccnc1CCc1ccc(Cl)cc1Cl` the GI50 was inactive: > 100 µM.
For `CNC1=C/C(=N/C2=CC(=N/C(=C\C#N)C(C)(C)O)/OC2(C)C)OC1(C)C`, the GI50 was inactive: 33.2 µM.
For `O=C(CC1C(=O)c2ccccc2C1=C1C(=O)c2ccccc2C1=O)c1ccccc1` (centres undefined), the GI50 was inactive: > 100 µM.
In the case of `Clc1ccc(-c2cn3c(nc4ccccc43)c(/C=C/c3cccs3)n2)cc1`, the GI50 is reported as inactive: > 100 µM.
For `COC(=O)C1=C(\c2ccccc2)c2ccccc2C(=O)N(C2CCCCC2)/C=C\1`, the GI50 was inactive: 31.4 µM.
In the case of `CCN1C(=O)C(=C/C=C/c2ccc([N+](=O)[O-])cc2)C(=O)N(CC)C1=S`, the GI50 is reported as inactive: > 100 µM.
In the case of `O=C(N/N=C\c1ccc([N+](=O)[O-])cc1)Nc1cccc2ccccc12`, the GI50 is reported as inactive: 48.2 µM.
`Cc1ccc(C(=O)c2[nH]c(NCc3ccccc3)c(C(=S)Nc3ccccc3)c2N)cc1` was tested, and the GI50 was inactive: 2.96 µM.
In the case of `CN(C)c1ccc(/C=c2\sc3nnc(Cc4ccccc4)n3c2=O)cc1`, the GI50 is reported as inactive: > 10 µM.
For `COc1ccc(OC)c(/C=N/N=C2\C(=O)Nc3c(Cl)cc(Cl)cc32)c1`, the GI50 was inactive: > 100 µM.
For `CCCCc1c2c(nc3c1CCc1cc4cc5c(nc4nc1-3)-c1nc3c(c(CCCC)c1CC5)CCC/C3=C\c1ccccc1)/C(=C/c1ccccc1)CCC2`, the GI50 was inactive: > 100 µM.
With `CN(C)CCNC(=O)c1cc([N+](=O)[O-])cc2ccc(-c3ccccc3)nc12` the GI50 was inactive: 5.18 µM.
`COc1cc(OC)c2nc(C)c3c(c2c1)OCC3` was tested, and the GI50 was inactive: > 100 µM.
For `Cc1ccc2c3c4c(ccc13)C(C)(C)OC4=C(C(C)C)C2=O`, the GI50 was inactive: > 100 µM.
In the case of `COc1ccc(C(=O)/C=C/c2ccc(OCC(=O)N3CCN(c4ccccc4)CC3)cc2)cc1`, the GI50 is reported as inactive: > 100 µM.
For `N#Cc1c(C#N)c(-c2ccccc2)n(Cc2ccccc2)c1N`, the GI50 was inactive: > 100 µM.
In the case of `COc1ccc(/C=C2\CCNC2=O)cc1`, the GI50 is reported as inactive: > 100 µM.
In the case of `CCCCNC(=O)OCCN=C1c2ccccc2C(Br)C(Br)c2ccccc21` (centres undefined), the GI50 is reported as inactive: > 100 µM.
For `COC(=O)n1c(C[P+](c2ccccc2)(c2ccccc2)c2ccccc2)cc2ccccc21`, the GI50 was inactive: 4 µM.
With `COc1cccc(N(CN2C(=O)CCC2C(=O)O)C(C)=O)c1` (centres undefined) the GI50 was inactive: > 100 µM.
In the case of `N#Cc1cc2c(cc1C#N)/C(=N\c1cccc(N)n1)N/C2=N\c1cccc(N)n1`, the GI50 is reported as inactive: 43.1 µM.
For `O=C(O)C1=CNC(C(=O)O)=NN1`, the GI50 was inactive: > 100 µM.
With `CC1(C)[C@@H]2C[C@H]1C(Cc1ccccc1C[C@H]1c3cc(-c4ccccn4)ncc3[C@H]3C[C@@H]1C3(C)C)c1cc(-c3ccccn3)ncc12` (some centres undefined) the GI50 was active: 0.411 µM.
For `CC(=O)O[C@@]12CO[C@@H]1CC(O)[C@@]1(C)C(=O)[C@H](O)C3=C(C)C(O)C[C@@](O)(C(OC(=O)c4ccccc4)C12)C3(C)C` (some centres undefined), the GI50 was inactive: 4.21 µM.
For `C=C1CCC23CC(CC[C@@H]2[C@@]12C[C@@H](c1ccoc1)OC2=O)OC3=O` (some centres undefined), the GI50 was inactive: > 100 µM.
For `CC1=C2[C@@H](c3ccccc3)C3C=CC2(C=C3C(F)(F)F)N(C(=O)NC2CCCCC2)C1=O` (some centres undefined), the GI50 was inactive: > 100 µM.
For `Nc1ncnc2c1ncn2COC/C=C/I`, the GI50 was inactive: > 100 µM.
With `C#C[C@]1(O)[C@@H](CO)O[C@@H](n2ccc(=O)[nH]c2=O)[C@@H]1O` the GI50 was active: 0.248 µM.
`CC([C@H]1CCC2C3CCC4CC5(CC[C@]4(C)C3CC[C@@]21C)c1ccccc1C(=O)N5C)N(C)C` (some centres undefined) was tested, and the GI50 was inactive: 22.1 µM.
With `CNC(=O)/C(=C/c1ccc(OC)cc1)c1cc(OC)c(OC)c(OC)c1` the GI50 was inactive: 3.23 µM.
`CC(=O)NC(CS)C(=O)NC(CO)C(=O)NC(CO)C(=O)NC(Cc1c[nH]c2ccccc12)C(=O)N1CCCC1C(=O)NC(CO)C(=O)NC(Cc1c[nH]c2ccccc12)C(=O)NC(Cc1c[nH]cn1)C(=O)NC(CO)C(=O)NC(Cc1c[nH]c2ccccc12)C(=O)NCC(=O)NCC(=O)NC(C)C(=O)NC(CCC(N)=O)C(=O)NC(CCCCN)C(=O)NC(C)C(=O)NC(CCCNC(=N)N)C(=O)NC(CCCCN)C(N)=O` (centres undefined) (Ac-CSSWPSWHSWGGAQKARK-NH2; configuration not given here) was tested, and the GI50 was inactive: > 50 µM.
In the case of `COC(=O)CCC(NC(=O)C(CCC(=O)OC)NC(=O)C(CCC(=O)OC)NC(=O)C(CCC(=O)OC)NC(=O)C(CCC(=O)OC)NC(=O)C(Cc1ccc([N+](=O)[O-])cc1)NC(=O)C(CCC(=O)OC)NC(=O)C(CCC(=O)OC)NC(=O)C(CCC(=O)OC)NC(=O)C(CCC(=O)OC)NC(=O)C(CCC(=O)OC)NC(C)=O)C(N)=O` (centres undefined) (Ac-E(OMe)E(OMe)E(OMe)E(OMe)E(OMe)[Phe(4-NO2)]E(OMe)E(OMe)E(OMe)E(OMe)E(OMe)-NH2; configuration not given here), the GI50 is reported as inactive: > 100 µM.
